Reference: article PMC4551323 (Molecular Biology of the Cell, 2015)

Legend:
[1] = target: HA-tagged type II TGF-β receptor (TβRII) (human, UniProt P37173 23-567); experiment: patch/FRAP
[2] = target: HA-tagged ALK1 (UniProt P37023 22-503); experiment: patch/FRAP

Sequence of UniProt P37173 (P37173 23-567): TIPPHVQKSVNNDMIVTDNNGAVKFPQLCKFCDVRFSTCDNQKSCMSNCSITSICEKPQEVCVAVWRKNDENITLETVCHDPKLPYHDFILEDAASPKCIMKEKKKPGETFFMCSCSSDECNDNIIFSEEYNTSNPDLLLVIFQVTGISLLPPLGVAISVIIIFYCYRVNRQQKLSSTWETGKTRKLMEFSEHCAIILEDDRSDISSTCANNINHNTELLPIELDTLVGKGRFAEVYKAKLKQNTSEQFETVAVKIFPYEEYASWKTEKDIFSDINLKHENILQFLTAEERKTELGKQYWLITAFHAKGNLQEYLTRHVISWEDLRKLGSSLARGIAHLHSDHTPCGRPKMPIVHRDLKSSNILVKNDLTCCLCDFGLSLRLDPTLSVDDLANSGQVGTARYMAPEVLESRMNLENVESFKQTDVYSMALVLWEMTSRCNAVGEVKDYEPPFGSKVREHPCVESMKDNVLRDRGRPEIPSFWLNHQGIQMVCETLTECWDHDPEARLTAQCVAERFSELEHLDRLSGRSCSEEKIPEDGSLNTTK

percent reduction in Rf (ΔRf) [1]: ~30%
percent in homodimers (ΔRf x 2) [2]: ~60%
percent reduction in Rf (ΔRf) [2]: ~30%
B1: myc-tagged ALK1 (receptor)
chain: not shown
